In publication PMC4336329 (PLoS ONE, 2015):
In all, about 310,000 compounds went through this assay and about 2,200 (0.71%) showed an effect of 50% or more. Effects have a minus sign here. The list shows a part of the results.

What follows are compounds tested against human ether-à-go-go-related gene (hERG) potassium channel (human, UniProt Q12809) (assay: primary screen, population patch clamp on CHO cells stably expressing hERG).
human ether-à-go-go-related gene (hERG) potassium channel, sequence (Q12809 whole entry, looked up): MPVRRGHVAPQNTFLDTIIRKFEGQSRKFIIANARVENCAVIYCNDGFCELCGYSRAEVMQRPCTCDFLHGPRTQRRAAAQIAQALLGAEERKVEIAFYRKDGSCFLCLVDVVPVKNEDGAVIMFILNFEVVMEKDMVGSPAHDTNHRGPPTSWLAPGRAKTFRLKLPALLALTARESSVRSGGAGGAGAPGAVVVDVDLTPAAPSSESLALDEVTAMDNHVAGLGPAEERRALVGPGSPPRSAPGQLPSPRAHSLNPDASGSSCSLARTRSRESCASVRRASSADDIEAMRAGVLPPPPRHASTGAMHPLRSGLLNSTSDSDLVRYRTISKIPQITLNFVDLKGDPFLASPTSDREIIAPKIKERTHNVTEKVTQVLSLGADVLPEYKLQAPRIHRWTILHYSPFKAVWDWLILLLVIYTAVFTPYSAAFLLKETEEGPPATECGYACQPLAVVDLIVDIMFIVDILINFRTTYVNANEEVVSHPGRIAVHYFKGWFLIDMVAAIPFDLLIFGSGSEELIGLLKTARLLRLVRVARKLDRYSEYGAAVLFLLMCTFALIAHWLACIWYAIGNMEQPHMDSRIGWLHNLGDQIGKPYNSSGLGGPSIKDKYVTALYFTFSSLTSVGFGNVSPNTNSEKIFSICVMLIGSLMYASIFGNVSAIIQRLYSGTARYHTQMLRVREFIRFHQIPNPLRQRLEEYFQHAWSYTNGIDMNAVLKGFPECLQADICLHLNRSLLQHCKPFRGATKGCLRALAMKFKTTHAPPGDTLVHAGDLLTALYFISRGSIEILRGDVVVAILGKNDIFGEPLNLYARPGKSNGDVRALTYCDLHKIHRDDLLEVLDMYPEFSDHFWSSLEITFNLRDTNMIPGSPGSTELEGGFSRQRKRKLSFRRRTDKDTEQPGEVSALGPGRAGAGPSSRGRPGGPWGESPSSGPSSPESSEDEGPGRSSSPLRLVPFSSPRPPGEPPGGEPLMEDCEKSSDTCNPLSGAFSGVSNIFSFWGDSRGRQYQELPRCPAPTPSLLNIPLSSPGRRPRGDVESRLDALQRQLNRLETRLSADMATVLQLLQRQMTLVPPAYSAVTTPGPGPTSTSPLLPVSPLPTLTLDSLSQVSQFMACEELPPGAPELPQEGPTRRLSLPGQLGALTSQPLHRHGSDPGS

Question: CC(=O)c1cc(F)c(N2CCCC2)cc1C was tested. Which “hERG current change (%, negative = inhibition) at 1uM” value did it give?
Answer: 5.68%

Question: For CC(=O)c1c(C)nn(C(=O)c2cccs2)c1C, which “hERG current change (%, negative = inhibition) at 1uM” value is on record?
Answer: 11.8%

Question: COCCCN=CC1=C(O)CC(c2ccccc2)CC1=O (stereo not drawn) was tested. Which “hERG current change (%, negative = inhibition) at 1uM” value did it give?
Answer: 11.7%

Question: Cc1ccccc1CNC(=O)Nc1cccs1 was tested. Which “hERG current change (%, negative = inhibition) at 1uM” value did it give?
Answer: 4.47%

Question: How did the “hERG current change (%, negative = inhibition) at 1uM” value turn out when O=C(/C=C/NCc1cccnc1)c1ccc(-c2ccccc2)cc1 was run?
Answer: 13.1%

Question: For Brc1ccc(CSc2ncn[nH]2)cc1, which “hERG current change (%, negative = inhibition) at 1uM” value is on record?
Answer: 11.4%

Question: For CNC(=S)N/N=C/c1cn(CCOc2ccccc2OC)c2ccccc12, which “hERG current change (%, negative = inhibition) at 1uM” value is on record?
Answer: 5.69%

Question: For COc1ccc(OC)c(C(c2nnnn2C2CCCC2)N2CCN(c3ccccc3F)CC2)c1.Cl (stereo not drawn), which “hERG current change (%, negative = inhibition) at 1uM” value is on record?
Answer: -1.95%

Question: For CC(=O)OC1=Cc2c(ccc3ccc(=O)oc23)OC1(C)C, which “hERG current change (%, negative = inhibition) at 1uM” value is on record?
Answer: 6.78%

Question: For CCOC(=O)/C=C1\SCC(=O)N1CC(=O)NC(C)c1ccc(F)cc1 (stereo not drawn), which “hERG current change (%, negative = inhibition) at 1uM” value is on record?
Answer: 7.87%

Question: COC(=O)C1=C(C)N(CC2CCCO2)C(=O)/C1=C\c1ccc(O)cc1 (stereo not drawn) was tested. Which “hERG current change (%, negative = inhibition) at 1uM” value did it give?
Answer: 9.92%

Question: With O=C(Nc1ccc2oc(-c3cccnc3)nc2c1)c1ccco1 as the compound, how does the “hERG current change (%, negative = inhibition) at 1uM” value read?
Answer: 1.53%

Question: CCC(CO)NCc1ccc(Br)cc1.Cl (stereo not drawn) was tested. Which “hERG current change (%, negative = inhibition) at 1uM” value did it give?
Answer: 12.6%

Question: How did the “hERG current change (%, negative = inhibition) at 1uM” value turn out when COc1ccc(C(C)=O)cc1COC(=O)c1cccnc1Cl was run?
Answer: 14.8%

Question: Which “hERG current change (%, negative = inhibition) at 1uM” value does the source give for Cc1ccc(-n2c(C)nc3cc(Cl)ccc3c2=O)nc1 here?
Answer: 15.7%

Question: How did the “hERG current change (%, negative = inhibition) at 1uM” value turn out when CCOc1ccc(NC(=S)Nc2cc(-c3ccccc3)[nH]n2)cc1 was run?
Answer: 5.36%

Question: O=C(Cc1ccc(F)cc1)NC1CCCCCC1 was tested. Which “hERG current change (%, negative = inhibition) at 1uM” value did it give?
Answer: 14.9%

Question: Which “hERG current change (%, negative = inhibition) at 1uM” value does the source give for CCN(CC)C1=CC2=CC(=C(C#N)C#N)CCC2CC1 (stereo not drawn) here?
Answer: 5.01%

Question: CCCCNS(=O)(=O)c1ccc2nc(SCC(=O)Nc3ccccc3)[nH]c2c1 was tested. Which “hERG current change (%, negative = inhibition) at 1uM” value did it give?
Answer: 5.78%

Question: Which “hERG current change (%, negative = inhibition) at 1uM” value does the source give for COc1ccc(/C=C2\SC(N)=NC2=O)cc1 here?
Answer: 14.6%

Question: For CCc1ccc(/C=C2\SC(N3CCOCC3)=NC2=O)cc1, which “hERG current change (%, negative = inhibition) at 1uM” value is on record?
Answer: -6.53%

Question: With COc1ccc2c(Cl)c(C(=O)NC3CCS(=O)(=O)C3)sc2c1 (stereo not drawn) as the compound, how does the “hERG current change (%, negative = inhibition) at 1uM” value read?
Answer: -1.99%

Question: Cn1c(SCC(=O)Nc2ccccc2F)nnc1-c1ccc(S(=O)(=O)N2CCOCC2)cc1 was tested. Which “hERG current change (%, negative = inhibition) at 1uM” value did it give?
Answer: -6.44%

Question: Brc1ccc(NC2=Nc3ccccc3CC2)cc1 was tested. Which “hERG current change (%, negative = inhibition) at 1uM” value did it give?
Answer: 9.7%

Question: Which “hERG current change (%, negative = inhibition) at 1uM” value does the source give for O=C(COC(=O)c1ccc(Sc2ccccc2)c([N+](=O)[O-])c1)NC1CCS(=O)(=O)C1 (stereo not drawn) here?
Answer: 4.79%

Question: How did the “hERG current change (%, negative = inhibition) at 1uM” value turn out when O=C(O)c1ccc(Cn2cnc3sc4c(c3c2=O)CCCC4)cc1 was run?
Answer: 13.6%

Question: With Cc1cccc(NC(=O)C(C)SCc2nc3sc(C)c(C)c3c(=O)[nH]2)n1 (stereo not drawn) as the compound, how does the “hERG current change (%, negative = inhibition) at 1uM” value read?
Answer: 1.56%
